# Results taken from article PMC4336329 (PLoS ONE, 2015).
# Screen size: about 310,000 compounds; about 14,000 (4.5%) showed an effect of 50% or more. Effects have a minus sign here. The list shows a part of the results.
# Target: human ether-à-go-go-related gene (hERG) potassium channel (human, UniProt Q12809)
# Assay: primary screen, population patch clamp on CHO cells stably expressing hERG
# 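Note: peak tail current of the secondary pulse compared with the same well before compound.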
# Sequence of human ether-à-go-go-related gene (hERG) potassium channel (Q12809 whole entry, looked up): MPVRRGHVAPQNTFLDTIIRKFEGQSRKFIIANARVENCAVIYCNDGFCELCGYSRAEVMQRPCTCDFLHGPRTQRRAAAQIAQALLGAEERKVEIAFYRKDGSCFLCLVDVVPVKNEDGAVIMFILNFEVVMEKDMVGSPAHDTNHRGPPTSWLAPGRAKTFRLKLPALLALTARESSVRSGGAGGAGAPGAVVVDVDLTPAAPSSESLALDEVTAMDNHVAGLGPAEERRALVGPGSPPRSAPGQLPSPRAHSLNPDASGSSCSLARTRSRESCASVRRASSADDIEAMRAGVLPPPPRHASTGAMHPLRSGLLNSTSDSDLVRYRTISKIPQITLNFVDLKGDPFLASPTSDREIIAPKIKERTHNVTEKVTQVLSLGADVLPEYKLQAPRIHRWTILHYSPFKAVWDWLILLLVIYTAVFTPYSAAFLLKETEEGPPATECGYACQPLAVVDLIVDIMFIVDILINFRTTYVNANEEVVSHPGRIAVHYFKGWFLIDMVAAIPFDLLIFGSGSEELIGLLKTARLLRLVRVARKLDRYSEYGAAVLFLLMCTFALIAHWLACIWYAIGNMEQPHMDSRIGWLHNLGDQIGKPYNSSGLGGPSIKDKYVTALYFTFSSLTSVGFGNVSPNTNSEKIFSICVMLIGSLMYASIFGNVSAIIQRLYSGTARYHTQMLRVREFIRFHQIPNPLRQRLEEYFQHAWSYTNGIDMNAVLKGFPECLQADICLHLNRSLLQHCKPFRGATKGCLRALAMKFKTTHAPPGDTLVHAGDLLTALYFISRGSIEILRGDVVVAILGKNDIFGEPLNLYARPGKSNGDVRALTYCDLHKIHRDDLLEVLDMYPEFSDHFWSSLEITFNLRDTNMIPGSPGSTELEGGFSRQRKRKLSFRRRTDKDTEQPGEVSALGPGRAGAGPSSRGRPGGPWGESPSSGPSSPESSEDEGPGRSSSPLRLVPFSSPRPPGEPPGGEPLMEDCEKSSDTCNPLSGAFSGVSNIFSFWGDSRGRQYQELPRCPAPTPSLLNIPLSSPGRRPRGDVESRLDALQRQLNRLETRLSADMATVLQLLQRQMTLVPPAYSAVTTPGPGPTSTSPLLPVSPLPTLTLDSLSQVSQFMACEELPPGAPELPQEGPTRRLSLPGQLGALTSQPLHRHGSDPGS
row,Structure (SMILES),"hERG current change (%, negative = inhibition) at 10uM [%]"
1,CC(C)CCNC(=O)C1CC(=O)N(C2CCCC2)C1 (stereo not shown),-8.78
2,CSc1n[nH]c(=O)n1-c1cccc(Cl)c1,-0.0163
3,NC(=O)CC(NC(=O)Cc1cccc2ccccc12)c1ccc(NCc2ccc(F)c(F)c2)c([N+](=O)[O-])c1 (stereo not shown),-1.33
4,CCCCN(C)C1=Nc2cccc3cccc1c23,-72
5,N#C/C(=C\c1ccc(Cl)cc1)c1n[nH]c(Cn2cncn2)n1,-0.154
6,O=C(CSc1ncccc1C(=O)O)NC1CCCCCCC1,2.52
7,CCN1CCN(c2ccc(S(=O)(=O)N3CCCCC3)cc2NC(=O)c2cccc(NC(C)=O)c2)CC1,-71.3
8,COc1cc(C(=O)NCC(c2cccs2)N(C)C)cc(Cl)c1OC(C)C (stereo not shown),-11
9,O=C(O)c1ccc2c(c1)C(=O)N(c1ccc(OCc3ccccc3)cc1)C2=O,23.3
10,CS(=O)(=O)c1ccc2nc(NC(=O)Nc3ccccc3F)sc2c1,25
11,CC(C)OC(=O)c1nn2c(C(F)(F)F)cc(-c3ccc(Br)o3)nc2c1Br,4.77
12,Cc1ccc2c(c1)N(C(=O)CCC(=O)NC1CCC(C)CC1)CCO2 (stereo not shown),-16
13,O=C(NNS(=O)(=O)c1ccccc1)C1CCN(S(=O)(=O)c2ccc(Cl)cc2)CC1,-45.9
14,COc1cnc(-c2ccccn2)[nH]c1=O,23.7
15,CC1CCCCN1CC(=O)Nc1ccc(N2CCCCCC2)cc1.O=C(O)C(=O)O (stereo not shown),-13.2
16,NC(=O)CSc1nc2ccc([N+](=O)[O-])cc2[nH]1,22.5
17,O=C(c1ccco1)N1CCN=C1SCc1ccccc1F,1.09
18,CCC(=O)N1c2ccc(S(=O)(=O)N3CCN(c4cc(C)ccc4C)CC3)cc2CC1C (stereo not shown),13.3
19,COc1ccc(OC)c(CCNC(=O)C2CCN(c3nnc(-n4cccc4)s3)CC2)c1,-34.1
20,O=[N+]([O-])c1ccc(N2CCN(S(=O)(=O)c3ccccc3)CC2)cc1NCc1ccco1,17.4
21,COc1ccc(CN2CCc3ccccc3C2)c(OC)c1OC,-13.4
22,CCOc1ccccc1Nc1nc(-c2sc(NC(=O)c3cccc(Cl)c3)nc2C)cs1,-7.47
23,CC1(C)CC(=O)C2=C(C1)Nc1ccccc1NC2c1ccc(F)c(F)c1 (stereo not shown),-3.14
24,Cc1c(NS(C)(=O)=O)c(=O)n(-c2ccccc2)n1C,2.77
25,COC(=O)N/N=C/c1cc(N=Nc2ccccc2)ccc1O,0.767
26,CCOc1ccc(S(=O)(=O)NCCN2CCOCC2)c2ccccc12,-11.2
27,COc1ccc(C(=O)N2CCN(c3ccc([N+](=O)[O-])c(NCCc4ccc(OC)c(OC)c4)c3)CC2)cc1,4.2
28,CSc1ncc(C(=O)Nc2ccc(Br)cn2)c(C)n1,-7.65

row,Structure (SMILES),"hERG current change (%, negative = inhibition) at 10uM [%]"
1,CC1=C(C(=O)OCc2ccccc2)C(c2cccc(Br)c2)NC(=O)N1 (stereo not shown),17.3
2,C[n+]1ccccc1/C=C/c1ccc([N+](=O)[O-])cc1.[I-],-2.7
3,CCO[C@H]1OC(C(=O)NCc2nc3ccccc3[nH]2)=C[C@@H](c2ccccc2)[C@@H]1CCCO,-9.74
4,CCOc1ccc(Cn2c(=O)sc3ccccc32)cc1OC,-12.7
5,COc1ccc(CNC(=O)CN2C(=O)CSc3ccc(S(=O)(=O)N4CCOCC4)cc32)cc1,-37.9
6,CC(C)c1ccc(CNc2cc(N3CCCC3)ccc2[N+](=O)[O-])cc1,13.8
7,CS(=O)(=O)N1CCN(c2ccc([N+](=O)[O-])cc2F)CC1,-12.7
8,CC(=O)Nc1cccc(C(=O)OCN2C(=O)c3ccccc3C2=O)c1,4.69
9,N#CC1=C(N)Oc2n[nH]c(-c3cccs3)c2C1c1cccs1 (stereo not shown),4.91
10,CCOc1ccc2[nH]c3c(=O)n(CCC4=CCCCC4)cnc3c2c1,4.95
11,O=C(c1ccco1)N1CCCC(N2CCN(c3ccccc3F)CC2)C1 (stereo not shown),-21.1
12,O=C1c2ccccc2C(=O)c2c(Nc3ccc(CCO)cc3)ccc(O)c21,18
13,O=C(c1ccoc1)N1CCCC(N2CCN(c3cccc(Cl)c3)CC2)C1 (stereo not shown),-41.3
14,CCn1cc(C(=O)NC2CCCCCC2)c2cc(OC)c(OC)cc2c1=O,-3.41
15,CCn1c(C)nnc1SCC(=O)Nc1ccc(N2CCOCC2)cc1,-6.43
16,Cc1cc(C=C2C(=O)c3ccccc3C2=O)c(C)n1-c1ccccc1,7.13
17,CN1CCCN(C(=O)CNC(=O)Cc2ccccc2)CC1,6.11
18,N#Cc1c(N)nc2c(c1-c1ccncc1)CCCC2,-26.5
19,Cc1sc2ncn(CC(=O)NCCCC(=O)N3CCCCC3)c(=O)c2c1C,1.08
20,COc1ccc(NC(=O)c2ccc(CNc3c(N4CCCC4)c(=O)c3=O)cc2)cc1Cl,7
21,CC(=O)N/C(=C/c1ccc(OS(=O)(=O)c2ccc(C)cc2)cc1)C(=O)Nc1ccc(C(=O)O)cc1,12.7
22,COc1ccc(OC)c(NC(=O)c2ccc(NS(=O)(=O)c3c(C)noc3C)cc2)c1,-11.2
23,CCC1(C)Cc2nc3sc(C(=O)O)c(N)c3cc2CO1 (stereo not shown),5.56
24,CCOC(=O)c1cnc2c(Cl)cc(Cl)cc2c1NCCOCCO,-18.2
25,O=C(CSc1nnnn1-c1ccc(F)cc1)NCc1cccs1,-0.104
26,CC(=O)N1CCN(c2ccc(NC(=O)c3ccc(OCc4ccccc4)cc3)cc2)CC1,16.7
27,O=c1[nH]c(=S)n(-c2ccccc2)c(O)c1C=NCCN1CCNCC1,20
